Publication PMC4336329 (PLoS ONE, 2015)
The whole screen tested about 310,000 compounds, of which about 14,000 (4.5%) showed an effect of 50% or more. The effect is printed as a negative number. Some of the results follow.

target: human ether-à-go-go-related gene (hERG) potassium channel (human, UniProt Q12809); assay: primary screen, population patch clamp on CHO cells stably expressing hERG
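Further: peak tail current of the secondary pulse compared with the same well before compound.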

Chain of human ether-à-go-go-related gene (hERG) potassium channel (Q12809 whole entry, looked up): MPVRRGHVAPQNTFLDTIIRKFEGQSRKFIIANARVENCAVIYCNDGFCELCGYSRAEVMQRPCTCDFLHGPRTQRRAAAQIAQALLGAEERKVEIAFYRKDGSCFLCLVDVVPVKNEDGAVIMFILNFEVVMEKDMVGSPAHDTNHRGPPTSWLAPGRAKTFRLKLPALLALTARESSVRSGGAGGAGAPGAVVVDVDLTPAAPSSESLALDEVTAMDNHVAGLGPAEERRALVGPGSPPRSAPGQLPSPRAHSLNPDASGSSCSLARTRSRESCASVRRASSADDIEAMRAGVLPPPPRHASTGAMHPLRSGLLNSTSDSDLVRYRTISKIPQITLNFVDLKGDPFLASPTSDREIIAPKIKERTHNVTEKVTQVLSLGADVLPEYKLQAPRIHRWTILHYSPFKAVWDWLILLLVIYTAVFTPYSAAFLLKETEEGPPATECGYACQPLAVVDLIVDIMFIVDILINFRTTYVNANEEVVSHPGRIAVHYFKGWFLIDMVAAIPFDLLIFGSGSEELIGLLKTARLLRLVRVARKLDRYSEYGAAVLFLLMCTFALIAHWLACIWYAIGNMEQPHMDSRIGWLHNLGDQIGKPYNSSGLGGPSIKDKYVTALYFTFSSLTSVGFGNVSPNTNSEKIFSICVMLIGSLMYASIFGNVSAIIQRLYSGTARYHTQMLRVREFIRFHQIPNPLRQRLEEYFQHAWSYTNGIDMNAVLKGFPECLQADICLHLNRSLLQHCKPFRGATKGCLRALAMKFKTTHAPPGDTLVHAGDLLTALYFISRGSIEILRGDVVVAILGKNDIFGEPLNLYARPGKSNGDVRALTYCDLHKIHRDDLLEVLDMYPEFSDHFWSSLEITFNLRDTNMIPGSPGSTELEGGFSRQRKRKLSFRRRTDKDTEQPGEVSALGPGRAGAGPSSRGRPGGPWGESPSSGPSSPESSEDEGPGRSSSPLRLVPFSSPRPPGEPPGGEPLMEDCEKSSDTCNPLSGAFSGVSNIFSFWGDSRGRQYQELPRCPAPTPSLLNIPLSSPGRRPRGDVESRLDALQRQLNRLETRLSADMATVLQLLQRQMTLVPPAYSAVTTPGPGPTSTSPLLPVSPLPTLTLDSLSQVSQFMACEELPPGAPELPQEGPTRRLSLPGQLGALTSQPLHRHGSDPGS

| SMILES | hERG current change (%, negative = inhibition) at 10uM [%] |
| --- | --- |
| O=C(NNc1ccccn1)C(=O)NNS(=O)(=O)c1ccc(Cl)cc1 | 16.6 |
| CCn1c(-c2ccc(N(C)C)cc2)nc2ccccc21 | -50.3 |
| COc1cc2c(cc1OC)C(c1ccccc1[N+](=O)[O-])N(C(C)=O)CC2 (stereo not shown) | 19.2 |
| C=C(C)C(=O)Nc1cccc(C2=NOC3(C2)C[C@H](C(N)=O)N(C(=O)CC#N)C3)c1 (stereo partly shown) | 2.18 |
| CC(C(=O)N1CCCC1)N(c1ccccc1)S(C)(=O)=O (stereo not shown) | 25.1 |
| Nn1c(SCC(=O)Nc2cccc(C(F)(F)F)c2)nncc1=O | -11.8 |
| C/C=C/C1=CC(=O)C[C@H](c2ccc3c(c2)OCO3)C1 | -6.76 |
| CCOC(=O)C[C@H]1c2cc(F)ccc2S(=O)(=O)N1c1cccc(OC)c1 | 3.59 |
| O=Cc1ccc(OCCCOc2cccc3cccnc23)cc1 | -54.3 |
| CC(Oc1ccc(Br)cc1)C(=O)Nn1c(=S)[nH]c2ncccc2c1=O (stereo not shown) | -9.15 |
| NC1=NC(c2ccc(Cl)cc2)N(c2ccc(S(N)(=O)=O)cc2)C(N)=N1 (stereo not shown) | 21.3 |
| COCCNC(=O)C1CC2Cn3c(nc4cc5ccccc5cc43)C2N1C (stereo not shown) | -3.93 |
| Nc1nnn(CC(=O)N/N=C/c2cn[nH]c2-c2ccccc2)n1 | 11.3 |
| CCOc1ccc(N(CC(=O)NC2CCCCC2)C(=O)CCCC(=O)Nc2ccccn2)cc1 | -0.443 |
| CCOC(=O)C(CC(=O)Nc1nc(C(C)=O)c(C)s1)C(C)c1ccccc1 (stereo not shown) | 2.61 |
| CC(Sc1nnc(-c2ccccc2F)n1C1CC1)C(=O)N1CCCC1 (stereo not shown) | 2.73 |
| COc1cc(=O)[nH]c(SCC(=O)Nc2ccc3ccccc3c2)n1 | 16.8 |
| CSc1nnc(-c2sccc2OCc2ccccc2)n1C | -13.8 |
| COc1ccc(/C(C)=N/NC(=O)c2ccc(NS(=O)(=O)c3cccs3)cc2)cc1 | 7.66 |
| COCCn1c(C)cc(C2=NNC(=NC3CC3)SC2)c1C.Cl | -41.9 |
| O=C(CN1CCCCCC1=O)OCc1ncc(-c2ccccc2)o1 | 4.36 |
| CCN(CC)S(=O)(=O)c1cc(NC(=O)CSc2n[nH]c(N)n2)ccc1C | 1.84 |
| Cl.NC(N)=NNC(=O)c1ccccc1Cl | 7.45 |
| COc1cc(C(=O)O)c([N+](=O)[O-])c(OC)c1OC | 15 |
| CC(C)(C)C1CCC(C(=O)NNC(=O)c2ccncc2)CC1 (stereo not shown) | -2.8 |
